From EPA's CvTdb concentration-time database
Values joined by “and” are separate entries in the source; they are usually repeats but may differ in a detail not shown here. Equal entries are not always repeated. The source gives many values for each of these; only a part stands here.

Key:
[1] = system: Rat; assay: concentration in plasma after dosing; details: 4 min; dosed: 2-Methyltetrahydrofuran; 10 mg/kg; oral; Female; F344
[2] = system: Rat; assay: concentration in brain after dosing; details: 20 min; dosed: 2-Methyltetrahydrofuran; 400 mg/kg; oral; Male; F344
[3] = system: Rat; assay: concentration in brain after dosing; details: 10 min; dosed: 2-Methyltetrahydrofuran; 100 mg/kg; oral; Male; Harlan Sprague Dawley
[4] = system: Rat; assay: concentration in brain after dosing; details: 0.75 h; dosed: 2-Methyltetrahydrofuran; 100 mg/kg; oral; Male; Harlan Sprague Dawley
[5] = system: Rat; assay: concentration in plasma after dosing; details: 2 h; dosed: 2-Methyltetrahydrofuran; 10 mg/kg; oral; Male; F344
[6] = system: Rat; assay: concentration in brain after dosing; details: 0.5 h; dosed: 2-Methyltetrahydrofuran; 10 mg/kg; iv; Male; F344
[7] = system: Rat; assay: concentration in brain after dosing; details: 0.75 h; dosed: 2-Methyltetrahydrofuran; 100 mg/kg; oral; Female; Harlan Sprague Dawley
[8] = system: Rat; assay: concentration in plasma after dosing; details: 20 min; dosed: Bromochloroacetic acid; 10 mg/kg; iv; Male; F344
[9] = system: Rat; assay: concentration in plasma after dosing; details: 0.5 h; dosed: Fluorotelomer alcohol 8+2; 80 mg/kg; oral; Female; Harlan Sprague Dawley
[10] = system: Rat; assay: concentration in plasma after dosing; details: dosed: Formamide, 90 mg/kg, iv, Male, Harlan Sprague Dawley
[11] = system: Rat; assay: concentration in plasma after dosing; details: dosed: Formamide, 90 mg/kg, iv, Male, Harlan Sprague Dawley; remark: listed apart in the source
[12] = system: Rat; assay: concentration in plasma after dosing; details: dosed: Formamide, 36 mg/kg, oral, Female, Harlan Sprague Dawley
[13] = system: Rat; assay: concentration in plasma after dosing; details: dosed: Formamide, 600 mg/kg, oral, Female, Harlan Sprague Dawley
[14] = system: Rat; assay: concentration in plasma after dosing; details: 5 min; dosed: Pyridine; 0.5 mg/kg; iv; Male; F344
[15] = system: rat; assay: concentration in blood after dosing; details: dosed: tert-amyl methyl ether, inhalation, duration: 6 hr, F344 (Charles River)

CC1CCCO1 (stereo not drawn) [2-Methyltetrahydrofuran]
Details	concentration in brain [µg/g]	concentration in plasma [ng/mL]
[1]	–	5380
[2]	190	–
[3]	43.5	–
[4]	53.6	–
[5]	–	153
[6]	3.01	–
[7]	68.4	–

O=C(O)C(Cl)Br (stereo not drawn) [Bromochloroacetic acid]
Details	concentration in plasma [ng/mL]
[8]	1190

OCCC(F)(F)C(F)(F)C(F)(F)C(F)(F)C(F)(F)C(F)(F)C(F)(F)C(F)(F)F [Fluorotelomer alcohol 8+2]
Details	concentration in plasma [ng/mL]
[9]	544

NC=O [Formamide]
concentration in plasma [ng/mL]
Details	[10]	[11]	[12]	[13]
0.25 h	–	–	–	476000
5 h	–	–	–	697000
8 h	62800	93300	36800	–
12 h	54600	88200	28400	–

c1ccncc1 [Pyridine]
Details	concentration in plasma [ng/mL]
[14]	530

CCC(C)(C)O [tertiary amyl alcohol]
[15]
Details	concentration in blood
0.1437 h, 100 ppm, female	4030 ng/mL
0.1613 h, 100 ppm, female	2750 ng/mL
0.1771 h, 100 ppm, female	3260 ng/mL
0.248 h, 2500 ppm, female	81100 ng/mL
0.276 h, 2500 ppm, female	93300 ng/mL
0.3497 h, 2500 ppm, female	61800 ng/mL
0.4094 h, 500 ppm, female	24100 ng/mL
0.4208 h, 500 ppm, female	17600 ng/mL
0.4238 h, 500 ppm, female	33300 ng/mL
0.435 h, 500 ppm, female	27000 ng/mL
0.4361 h, 2500 ppm, female	90600 ng/mL
0.4426 h, 2500 ppm, female	70200 ng/mL
0.4923 h, 100 ppm, female	3620 ng/mL
0.4952 h, 100 ppm, female	3420 ng/mL
0.503 h, 100 ppm, female	2840 ng/mL
0.8293 h, 2500 ppm, female	56100 ng/mL
0.948 h, 2500 ppm, female	83300 ng/mL
0.9482 h, 2500 ppm, female	82600 ng/mL
0.9605 h, 500 ppm, female	25100 ng/mL
0.9676 h, 500 ppm, female	21100 ng/mL
0.9688 h, 500 ppm, female	20400 ng/mL
0.9757 h, 500 ppm, female	16400 ng/mL
0.9845 h, 2500 ppm, female	68800 ng/mL
0.9867 h, 2500 ppm, female	61800 ng/mL and 61600 ng/mL
1.037 h, 100 ppm, female	2270 ng/mL
1.054 h, 100 ppm, female	2700 ng/mL
1.825 h, 100 ppm, male	933 ng/mL and 888 ng/mL
1.827 h, 100 ppm, male	418 ng/mL
1.967 h, 100 ppm, female	1190 ng/mL
1.968 h, 100 ppm, female	1100 ng/mL
2.022 h, 500 ppm, female	15400 ng/mL
2.056 h, 500 ppm, female	13800 ng/mL and 13600 ng/mL
2.059 h, 500 ppm, female	12100 ng/mL
2.098 h, 2500 ppm, female	72300 ng/mL
2.101 h, 2500 ppm, female	61800 ng/mL
2.133 h, 2500 ppm, female	61600 ng/mL
3.86 h, 100 ppm, male	628 ng/mL and 576 ng/mL
3.861 h, 100 ppm, male	355 ng/mL
3.862 h, 100 ppm, male	218 ng/mL
3.878 h, 100 ppm, male	1920 ng/mL
3.88 h, 100 ppm, male	1500 ng/mL
3.954 h, 2500 ppm, female	43800 ng/mL
3.955 h, 2500 ppm, female	41700 ng/mL
3.956 h, 2500 ppm, female	37900 ng/mL
3.958 h, 2500 ppm, female	31800 ng/mL
3.959 h, 2500 ppm, female	29300 ng/mL
3.966 h, 100 ppm, female	525 ng/mL
3.968 h, 100 ppm, female	350 ng/mL
3.969 h, 100 ppm, female	259 ng/mL
3.985 h, 2500 ppm, female	46300 ng/mL
4 min, 500 ppm, female	26800 ng/mL
4.032 h, 500 ppm, female	7980 ng/mL
4.037 h, 500 ppm, female	5070 ng/mL
4.04 h, 500 ppm, female	3650 ng/mL
9.846 h, 100 ppm, male	216 ng/mL
9.847 h, 100 ppm, male	65.9 ng/mL
9.954 h, 2500 ppm, female	2870 ng/mL
9.966 h, 100 ppm, female	8.27 ng/mL
17.93 h, 500 ppm, female	61.8 ng/mL
17.94 h, 100 ppm, male	13.6 ng/mL
17.98 h, 2500 ppm, female	412 ng/mL
18.11 h, 100 ppm, female	19 ng/mL
26.5 min, 2500 ppm, female	73200 ng/mL
136 s, 500 ppm, female	25800 ng/mL
201 s, 2500 ppm, female	84500 ng/mL
238 s, 2500 ppm, female	52400 ng/mL
318 s, 2500 ppm, female	82400 ng/mL
341 s, 2500 ppm, female	62400 ng/mL
358 s, 500 ppm, female	25500 ng/mL

[15], female, during exposure
Details	concentration in blood
-217 s, 100 ppm	3880 ng/mL
-201 s, 500 ppm	26500 ng/mL
-181 s, 100 ppm	3160 ng/mL
-149 s, 100 ppm	4180 ng/mL
-5.935 h, 100 ppm	286 ng/mL
-5.934 h, 100 ppm	260 ng/mL
-5.932 h, 100 ppm	65 ng/mL
-5.873 h, 2500 ppm	1680 ng/mL
-5.818 h, 500 ppm	1360 ng/mL
-5.786 h, 500 ppm	371 ng/mL
-5.753 h, 100 ppm	397 ng/mL and 371 ng/mL
-5.643 h, 100 ppm	657 ng/mL
-5.642 h, 100 ppm	631 ng/mL
-5.6 h, 100 ppm	871 ng/mL
-5.587 h, 2500 ppm	3360 ng/mL
-5.483 h, 500 ppm	2840 ng/mL
-5.482 h, 500 ppm	2600 ng/mL
-5.48 h, 500 ppm	1550 ng/mL
-5.076 h, 100 ppm	1030 ng/mL
-5.057 h, 100 ppm	1340 ng/mL
-5.056 h, 100 ppm	1240 ng/mL
-5.054 h, 100 ppm	1130 ng/mL
-4.935 h, 500 ppm	5870 ng/mL
-4.922 h, 2500 ppm	14300 ng/mL
-4.921 h, 2500 ppm	12800 ng/mL and 11600 ng/mL
-4.022 h, 500 ppm	10500 ng/mL
-4.021 h, 500 ppm	10300 ng/mL
-4.018 h, 500 ppm	8470 ng/mL
-3.997 h, 100 ppm	2380 ng/mL
-3.994 h, 100 ppm	2170 ng/mL
-3.842 h, 2500 ppm	24200 ng/mL
-3.813 h, 2500 ppm	31300 ng/mL
-3.812 h, 2500 ppm	28800 ng/mL
-3.81 h, 2500 ppm	22700 ng/mL
-3.809 h, 2500 ppm	21700 ng/mL
-2.077 h, 500 ppm	22900 ng/mL
-2.068 h, 500 ppm	17900 ng/mL
-2.019 h, 100 ppm	3270 ng/mL
-1.995 h, 100 ppm	1550 ng/mL
-1.973 h, 2500 ppm	53800 ng/mL
-1.971 h, 2500 ppm	48600 ng/mL and 47900 ng/mL
-1.97 h, 2500 ppm	45400 ng/mL
-1.969 h, 2500 ppm	41600 ng/mL
-0.1128 h, 500 ppm	24000 ng/mL
-0.1058 h, 500 ppm	20000 ng/mL
-0.1054 h, 500 ppm	19800 ng/mL
